Out of some 310,000 compounds screened, about 14,000 (4.5%) showed an effect of 50% or more. Effects have a minus sign here. The list shows a part of the results.
These compounds were tested against human ether-à-go-go-related gene (hERG) potassium channel (human, UniProt Q12809) (assay: primary screen, population patch clamp on CHO cells stably expressing hERG).
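Also: peak tail current of the secondary pulse compared with the same well before compound.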

Chain of human ether-à-go-go-related gene (hERG) potassium channel (Q12809 whole entry, looked up): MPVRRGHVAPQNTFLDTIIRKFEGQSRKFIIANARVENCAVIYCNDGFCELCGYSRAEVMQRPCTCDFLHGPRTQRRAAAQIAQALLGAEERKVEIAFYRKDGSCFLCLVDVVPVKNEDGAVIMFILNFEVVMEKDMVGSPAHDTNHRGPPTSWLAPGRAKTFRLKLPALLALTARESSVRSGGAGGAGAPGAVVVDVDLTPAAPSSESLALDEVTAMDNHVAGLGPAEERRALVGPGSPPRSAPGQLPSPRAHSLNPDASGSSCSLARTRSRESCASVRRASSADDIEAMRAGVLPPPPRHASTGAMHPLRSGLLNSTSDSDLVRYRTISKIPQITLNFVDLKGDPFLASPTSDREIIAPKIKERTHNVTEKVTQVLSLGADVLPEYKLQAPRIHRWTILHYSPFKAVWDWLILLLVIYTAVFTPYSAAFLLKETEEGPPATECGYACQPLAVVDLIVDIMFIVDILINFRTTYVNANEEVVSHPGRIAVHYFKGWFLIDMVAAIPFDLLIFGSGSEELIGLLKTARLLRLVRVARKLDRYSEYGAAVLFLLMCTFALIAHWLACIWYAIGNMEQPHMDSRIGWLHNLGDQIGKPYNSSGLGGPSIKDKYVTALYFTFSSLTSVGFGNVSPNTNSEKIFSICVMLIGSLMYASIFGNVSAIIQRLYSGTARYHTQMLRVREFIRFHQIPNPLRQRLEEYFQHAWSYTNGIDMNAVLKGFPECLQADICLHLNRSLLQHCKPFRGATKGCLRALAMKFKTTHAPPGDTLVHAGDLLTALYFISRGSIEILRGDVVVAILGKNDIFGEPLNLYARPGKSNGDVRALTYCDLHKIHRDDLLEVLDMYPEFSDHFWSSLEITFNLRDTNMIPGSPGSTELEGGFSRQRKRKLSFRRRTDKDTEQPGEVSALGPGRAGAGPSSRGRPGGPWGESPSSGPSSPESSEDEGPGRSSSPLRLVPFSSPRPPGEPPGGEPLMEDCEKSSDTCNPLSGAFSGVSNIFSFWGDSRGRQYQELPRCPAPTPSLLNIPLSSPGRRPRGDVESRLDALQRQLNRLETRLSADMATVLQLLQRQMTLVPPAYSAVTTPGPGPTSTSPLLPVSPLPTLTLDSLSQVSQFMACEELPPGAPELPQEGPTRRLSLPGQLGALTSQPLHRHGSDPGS

First: CC(=O)Nc1ccc(NC(=S)NC(=O)/C=C/c2ccc(Cl)cc2)cc1
Second: CN(CCOc1ccc(Cl)cc1)CC(=O)Nc1ccc(OC(F)F)cc1
The “hERG current change (%, negative = inhibition) at 10uM” value of the first is higher: 17.7% for the first, -71.4% for the second.

First: COC(=O)[C@@]12CCCCN1[C@H](c1ccc(-c3cc(C(C)=O)cs3)c(OC)c1)[C@H]1C(=O)N(C)C(=O)[C@H]12.O=C(O)C(F)(F)F
Second: CN1C(=O)C(C)(C)c2cc(S(=O)(=O)NCC3CCC(C(=O)NCc4ccc(F)cc4)CC3)ccc21 (centres unmarked)
The “hERG current change (%, negative = inhibition) at 10uM” value of the first is higher: 10.5% for the first, -47% for the second.

Compared with `O=C(N/N=C/c1ccc(OC(=O)c2ccc3c(c2)OCO3)cc1)c1cncc(Br)c1`, `COc1ccc(/C=N/NC(=O)c2ccc3c(c2)OCO3)c(C(=O)O)c1OC` is higher in “hERG current change (%, negative = inhibition) at 10uM” value: 10.8% for the first, 15.2% for the second.

Compared with `CCCCS(=O)(=O)Nc1ccc(Cc2ccncc2)cc1`, `COc1ccc(NC(=O)CN(C)C(=O)CSCc2ccc(C)cc2)cc1` is higher in “hERG current change (%, negative = inhibition) at 10uM” value: -50.2% for the first, -3.56% for the second.

Compared with `CCCCNc1ncnc2c1nnn2Cc1ccccc1Cl`, `Cc1ccc2oc(=O)n(CCOc3ccccc3Cl)c2c1` is lower in “hERG current change (%, negative = inhibition) at 10uM” value: 15.8% for the first, -7.26% for the second.

Compared with `CCOC(=O)C(C)Sc1nc(=O)n2ccccc2n1` (centres unmarked), `CCOC(=O)Cn1ccc(-c2ccccc2)c(C#N)c1=O` is higher in “hERG current change (%, negative = inhibition) at 10uM” value: 12.7% for the first, 18.9% for the second.

Going from `COc1cccc(CNC(=O)c2cc3ccccn3n2)c1` to `Cc1nc2ccccn2c1CN(C)C(=O)C1CCC(=O)N(Cc2cccc(F)c2)C1` (centres unmarked), the “hERG current change (%, negative = inhibition) at 10uM” value falls from -10.1% to -80.2%.

Going from `O=C(Nc1ccc2c(c1)OCO2)c1nn(-c2ccccc2)c(=O)c2ccccc12` to `O=C(Nc1ccc(N2CCOCC2)cc1)c1ccc2c(c1)OCO2`, the “hERG current change (%, negative = inhibition) at 10uM” value rises from 11% to 14.3%.

First: CCCCOc1ccc(OCCNC(=O)C2CCCN2C(=O)Nc2ccccc2)cc1 (centres unmarked)
Second: CCCCCC(=O)N1CC2(CC(c3cccc(NC(=O)c4ccccc4)c3)=NO2)C[C@@H]1C(N)=O (some centres unmarked)
The “hERG current change (%, negative = inhibition) at 10uM” value of the first is higher: 7.95% for the first, -54.6% for the second.

First: O=C(CNc1cccc(C(F)(F)F)c1)Nc1cccc(S(=O)(=O)N2CCCC2)c1
Second: O=C(Nc1nc(-c2cccs2)cs1)c1cccc(S(=O)(=O)N2CCCCCC2)c1
The “hERG current change (%, negative = inhibition) at 10uM” value of the first is lower: -6.44% for the first, 15.1% for the second.

Going from `COc1ccc(/C=C2\CC/C(=C\c3ccc(OC)c(OC)c3)C2=O)cc1OC` to `COc1cc(/C=C2\NC(=S)N(C)C2=O)ccc1OCc1ccccc1F`, the “hERG current change (%, negative = inhibition) at 10uM” value rises from -6.04% to 11%.

Compared with `CCc1c(C)sc(NC(=O)c2cc(C(C)C)on2)c1C#N`, `CCN(CC)S(=O)(=O)c1cc(C(=O)Nc2ccc(Cl)cn2)ccc1C` is lower in “hERG current change (%, negative = inhibition) at 10uM” value: 3.42% for the first, -41.9% for the second.

First: Cc1nnc(SCc2cc(=O)n3[nH]cnc3n2)s1
Second: O=c1c2ccccc2cnn1-c1ccc(Cl)nn1
The “hERG current change (%, negative = inhibition) at 10uM” value of the first is lower: -6.64% for the first, 14.7% for the second.

Going from `CC1C(=O)CCN(C(C)(C)C)C1C.Cl` (centres unmarked) to `CC(C)(C)NC(=O)CN(C(=O)C1CSC(=O)C1)c1ccc2c(c1)OCCO2` (centres unmarked), the “hERG current change (%, negative = inhibition) at 10uM” value falls from 2.46% to -0.328%.

Compared with `COc1ccc(-c2cc(C(F)(F)F)n3nc(C(=O)Nc4c(C)n(C)n(-c5ccccc5)c4=O)c(Cl)c3n2)cc1`, `C/C(=N\Nc1nc(C)cc(-c2ccccc2)n1)c1ccc(O)cc1` is lower in “hERG current change (%, negative = inhibition) at 10uM” value: 29.3% for the first, 3.53% for the second.

First: O=C(c1cc2ccccc2oc1=O)N(Cc1cccs1)CC1CCCO1 (centres unmarked)
Second: Nc1c(N(CCO)C(=O)C2CCCCC2)c(=O)[nH]c(=O)n1Cc1ccccc1
The “hERG current change (%, negative = inhibition) at 10uM” value of the first is higher: -1.86% for the first, -16.6% for the second.

Going from `O=c1oc(CCCO)cc2ccc(C#Cc3ccsc3)cc12` to `O=c1c2ccccc2nc(/C=C/c2c[nH]c3ccccc23)n1CCO`, the “hERG current change (%, negative = inhibition) at 10uM” value rises from -8.12% to 15.4%.

Compared with `CCn1cc(S(=O)(=O)Nc2ccccc2C(F)(F)F)cn1`, `O=c1[nH]c2ccc(S(=O)(=O)N3CCN(Cc4ccccc4)CC3)cc2[nH]c1=O` is lower in “hERG current change (%, negative = inhibition) at 10uM” value: 16.7% for the first, -1.75% for the second.

First: CCC/C=N/NC(=O)c1cc(Br)ccc1O
Second: Cc1c(C(=O)N/N=C/c2ccc(O)cc2)sc(=S)n1C
The “hERG current change (%, negative = inhibition) at 10uM” value of the first is higher: 7.54% for the first, 6.05% for the second.

Going from `CC(C)c1csc2nc3n(c(=O)c12)CCCCC3` to `COc1cc(CCN2C(=O)c3cccc4cccc(c34)C2=O)c(S(=O)(=O)N2CCCCCC2)cc1OC`, the “hERG current change (%, negative = inhibition) at 10uM” value rises from -10.7% to 3.78%.

Compared with `COc1cc(OC)cc(C(=O)Nc2nc(CC(=O)NC(C)c3ccccc3)cs2)c1` (centres unmarked), `O=C(O)c1nn(CCSc2ccccc2F)c(=O)c2ccccc12` is higher in “hERG current change (%, negative = inhibition) at 10uM” value: -1.59% for the first, 10.1% for the second.

First: Cc1ccc(-c2nc3ncccc3o2)cc1NC(=O)c1ccco1
Second: COc1ccc(NC(=S)N(Cc2ccc(C)cc2)Cc2ccccn2)cc1
The “hERG current change (%, negative = inhibition) at 10uM” value of the first is higher: -19.6% for the first, -50.5% for the second.

First: CN(C)CCNC(=O)C(=O)NCC(c1ccc2c(c1)OCO2)N1CCN(c2ccc(F)cc2)CC1 (centres unmarked)
Second: O=C1CC(N(Cc2ccco2)C(=O)Nc2ccc(F)cc2)C(=O)N1c1ccc(F)cc1 (centres unmarked)
The “hERG current change (%, negative = inhibition) at 10uM” value of the first is lower: -7.52% for the first, 4.84% for the second.

First: Cn1c(SCC(=O)N2CCOCC2)nc2cccnc21
Second: CCO[C@@H]1OC(C(=O)N2CCOCC2)=C[C@H](C)[C@H]1CCCO
The “hERG current change (%, negative = inhibition) at 10uM” value of the first is lower: -2.29% for the first, 11.8% for the second.

Compared with `C=CCn1c(COc2cccc(C)c2)nnc1SC(C)C(=O)NC1CC1` (centres unmarked), `C=CCNC(=O)COc1ccccc1C#N` is lower in “hERG current change (%, negative = inhibition) at 10uM” value: -8.3% for the first, -16% for the second.

Compared with `Cc1nn(C)c(C)c1S(=O)(=O)N1CCC(C(=O)NC2CCCCCC2)CC1`, `OCCN1CCN(c2ncnc3nc[nH]c23)CC1` is lower in “hERG current change (%, negative = inhibition) at 10uM” value: 2.21% for the first, 1.62% for the second.

First: Cc1ccc(C(=O)/C=C\Nc2ccc(C)c(C)c2)cc1
Second: COc1ccc(Cc2nc3ccc(C(=O)N4CCCC4)cc3o2)cc1
The “hERG current change (%, negative = inhibition) at 10uM” value of the first is lower: -28.1% for the first, -7.05% for the second.

First: Cn1nc([N+](=O)[O-])nc1Sc1nnc(-c2ccccc2)o1
Second: CC(Sc1nc(-c2ccco2)nc2c1c(=O)n(C)c(=O)n2C)C(=O)O (centres unmarked)
The “hERG current change (%, negative = inhibition) at 10uM” value of the first is lower: -8.47% for the first, 10.3% for the second.

— PMC4336329 (PLoS ONE, 2015)
